Assay: Solubility

Structure (SMILES)	Solubility: insoluble in	Solubility: soluble in
CC[C@@]1(O)C[C@H](O[C@H]2C[C@H](N3CCOCC3)[C@H](O)[C@H](C)O2)c2c(O)c3c(c(O)c2[C@H]1O)C(=O)c1cccc(O)c1C3=O [M-R20X2, 3'-deamino-3'-(4-morpholinyl)-13-deoxo-10-hydroxycarminomycin]	Insoluble in water, hexane, cyclohexane, diethyl ether, and petroleum ether	Soluble in acidic water, basic water, methanol, ethanol, propanol, acetone, ethyl acetate, and chloroform
CC[C@@]1(O)C[C@H](O[C@H]2C[C@H](N)[C@H](O)[C@H](C)O2)c2c(O)c3c(c(O)c2[C@H]1O)C(=O)c1cccc(O)c1C3=O [R20X2, 13-deoxo-10-hydroxycarminomycin]	Insoluble: water	Soluble: acidic water, basic

Source: patent US4877870A, “Process for producing 10-hydroxyanthracyclines” (Kirin Beer Kabushiki Kaisha, priority 1986, dated 1989)
